Here are results for 25 compounds from the antibiotic and cytotoxicity screens of Wong et al. (2023).

Assay [1] relates to HSkMC (human skeletal muscle cells). Nature of the assay: cytotoxicity call (relative viability < 0.9). The following applies: 10 µM.
The test system of assay [2] is HepG2. Nature of the assay: cytotoxicity call (relative viability < 0.9). The following applies: 10 µM.
Assay [3] has as its system S. aureus RN4220. Nature of the assay: growth inhibition call (relative growth <= 0.2). The following applies: 50 µM.

The other results are listed elsewhere or left out.

`C[C@H]1CN([C@@H](C)CO)C(=O)c2cc(NS(C)(=O)=O)ccc2O[C@H]1CN(C)S(=O)(=O)c1cn(C)cn1`: the cytotoxicity call in assay [1] and in assay [2] was “inactive” throughout. The growth inhibition call in assay [3] is “inactive”.
With `Nc1ccc(S(=O)(=O)[O-])cc1.Nc1ccc(S(=O)(=O)[O-])cc1.[Zn+2]`, the cytotoxicity call in assay [1] and in assay [2] was “inactive” each time. In addition, the growth inhibition call in assay [3] is “inactive”.
Take `C[C@@H]1CN([C@@H](C)CO)C(=O)c2cc(NC(=O)Nc3ccc(C(F)(F)F)cc3)ccc2O[C@@H](C)CCCCO[C@@H]1CN(C)S(=O)(=O)c1cn(C)cn1`: the cytotoxicity call in assay [1] and in assay [2] was “inactive” in each case. The growth inhibition call in assay [3] was “inactive”.
With `C[C@H]1CN([C@@H](C)CO)C(=O)c2cccc(NS(=O)(=O)c3ccc(F)cc3)c2O[C@H]1CN(C)Cc1ccc(Cl)c(Cl)c1`, the cytotoxicity call in assay [1] and in assay [2] was “inactive” throughout. In assay [3], the growth inhibition call is “inactive”.
With `CCCCOc1ccc(C(=O)C2=C(O)C(=O)N(Cc3cccnc3)[C@H]2c2ccc(O)c(OCC)c2)c(C)c1`, the cytotoxicity call in assay [1] and in assay [2] was “inactive” throughout. The growth inhibition call in assay [3] is “inactive”.
Consider `C[C@H]1CN([C@@H](C)CO)C(=O)c2cc(NC(=O)NC3CCCCC3)ccc2O[C@H]1CN(C)Cc1ccc(C(=O)Nc2ccccc2N)cc1`, for which the cytotoxicity call in assay [1] and in assay [2] was “inactive” each time. The growth inhibition call in assay [3] was “inactive”.
Take `Cn1nnnc1-c1ccc(N)cc1`: the cytotoxicity call in assay [1] and in assay [2] was “inactive” each time. Further, in assay [3], the growth inhibition call was “inactive”.
For the compound `CCCCCCCCCCCCCCCC(=O)OC[C@H](NC(=O)C(Cl)Cl)[C@H](O)c1ccc([N+](=O)[O-])cc1`, the cytotoxicity call in assay [1] and in assay [2] was “inactive” throughout. For the same compound, the growth inhibition call in assay [3] was “inactive”.
Take `C[C@H]1CCCCO[C@@H](CN(C)S(=O)(=O)c2ccccc2)[C@@H](C)CN([C@@H](C)CO)C(=O)c2cc(NC(=O)NC3CCCCC3)ccc2O1`: the cytotoxicity call in assay [1] and in assay [2] was “inactive” each time. Moreover, the growth inhibition call in assay [3] was “inactive”.
Consider `COc1ccc(CN(C)C[C@H]2OCCCC[C@@H](C)Oc3ccc(NC(=O)c4ccncc4)cc3C(=O)N([C@H](C)CO)C[C@H]2C)cc1`, for which the cytotoxicity call in assay [1] and in assay [2] was “inactive” throughout. Besides, the growth inhibition call in assay [3] is “inactive”.
As for `C[C@@H]1CN([C@H](C)CO)C(=O)CCCn2cc(nn2)CO[C@@H]1CN(C)S(=O)(=O)c1ccc(Cl)cc1`, the cytotoxicity call in assay [1] and in assay [2] was “inactive” each time. The growth inhibition call in assay [3] is “inactive”.
On to `COc1ccc(S(=O)(=O)Nc2ccc3c(c2)C(=O)N([C@@H](C)CO)C[C@@H](C)[C@H](CN(C)Cc2ccc(C(F)(F)F)cc2)OCCCC[C@H](C)O3)cc1`, for which the cytotoxicity call in assay [1] and in assay [2] was “active” throughout. Besides, in assay [3], the growth inhibition call is “inactive”.
`Cc1noc(C)c1S(=O)(=O)Nc1ccc2c(c1)CC(=O)N([C@H](C)CO)C[C@H](C)[C@@H](CN(C)Cc1ccc(Oc3ccccc3)cc1)O2`: the cytotoxicity call in assay [1] is “inactive”. Besides, the cytotoxicity call in assay [2] is “active”. The growth inhibition call in assay [3] is “inactive”.
For `COc1ccccc1S(=O)(=O)N(C)C[C@H]1OCc2cnnn2CCCC(=O)N([C@H](C)CO)C[C@@H]1C`, the cytotoxicity call in assay [1] and in assay [2] was “inactive” each time. Further, in assay [3], the growth inhibition call was “inactive”.
Take `Cc1noc(C)c1S(=O)(=O)N(C)C[C@@H]1Oc2ccc(NC(=O)C3CCCCC3)cc2CC(=O)N([C@H](C)CO)C[C@@H]1C`: the cytotoxicity call in assay [1] and in assay [2] was “inactive” throughout. Besides, the growth inhibition call in assay [3] was “inactive”.
`C[C@H]1CN([C@@H](C)CO)C(=O)c2ccccc2-c2ccccc2CO[C@@H]1CN(C)C(=O)Nc1ccccc1C(F)(F)F`: the cytotoxicity call in assay [1] and in assay [2] was “inactive” each time. Also, the growth inhibition call in assay [3] was “inactive”.
With `CO[C@@H]1CN(C)C(=O)c2cc(NS(=O)(=O)c3cn(C)cn3)ccc2OC[C@@H](C)N(Cc2cccc(F)c2)C[C@@H]1C`, the cytotoxicity call in assay [1] and in assay [2] was “inactive” each time. Besides, in assay [3], the growth inhibition call is “inactive”.
On to `C[C@H](CO)N1C[C@H](C)[C@@H](CN(C)Cc2ccc(C(=O)O)cc2)OCCCC[C@H](C)Oc2ccc(NC(=O)Nc3ccc4c(c3)OCO4)cc2C1=O`, for which the cytotoxicity call in assay [1] and in assay [2] was “inactive” throughout. Also, the growth inhibition call in assay [3] is “inactive”.
On to `C[C@@H]1CCCCO[C@@H](CN(C)S(=O)(=O)c2ccc(Cl)cc2)[C@H](C)CN([C@H](C)CO)C(=O)c2cc(NC(=O)C3CCCCC3)ccc2O1`, for which the cytotoxicity call in assay [1] and in assay [2] was “inactive” in each case. Besides, the growth inhibition call in assay [3] was “inactive”.
With `NCC1OC(OC2C(N)CC(N)C(O)C2OC2OC(CO)C(O)C2O)C(N)C(O)C1O.O=S(=O)(O)O` (stereo not given), the cytotoxicity call in assay [1] and in assay [2] was “inactive” each time. Moreover, the growth inhibition call in assay [3] is “inactive”.
With `Cc1ccc2nc(SCc3ccc4ccccc4c3)[nH]c2c1`, the cytotoxicity call in assay [1] is “inactive”. Moreover, the cytotoxicity call in assay [2] was “active”. Further, in assay [3], the growth inhibition call was “inactive”.
Regarding `C[C@H]1CN([C@@H](C)CO)C(=O)c2cccc(NC(=O)c3ccc(-c4nccs4)cc3)c2O[C@@H]1CN(C)C(=O)Nc1ccc2c(c1)OCO2`, the cytotoxicity call in assay [1] and in assay [2] was “inactive” each time. The growth inhibition call in assay [3] was “inactive”.
With `C[C@H]1CN([C@@H](C)CO)C(=O)Cc2cc(NC(=O)CCCCCC(=O)Nc3ccccc3N)ccc2O[C@@H]1CN(C)C(=O)Nc1cccc2ccccc12`, the cytotoxicity call in assay [1] and in assay [2] was “inactive” in each case. The growth inhibition call in assay [3] was “inactive”.
As for `C[C@H](CO)N1C[C@H](C)[C@@H](CN(C)C(=O)Nc2cccc3ccccc23)Oc2ccc(NC(=O)Cc3cn(C)c4ccccc34)cc2CC1=O`, the cytotoxicity call in assay [1] and in assay [2] was “inactive” throughout. In addition, the growth inhibition call in assay [3] is “inactive”.
For the compound `CC(O)(P(=O)(O)O)P(=O)(O)O`, the cytotoxicity call in assay [1] and in assay [2] was “inactive” in each case. The growth inhibition call in assay [3] was “inactive”.
